In PubChem BioAssay (NCI):
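Cultured in 96-well plates, cells were exposed to test compound for 48 hours across five concentrations. GI50: concentration for 50% inhibition of growth. At the TGI there is no net growth.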

These molecules were tested on NCI-H322M lung (assay: inhibition of tumour cell growth, NCI panel, 48 h).

SMILES	GI50 [µM]	TGI [µM]
Cn1cc(-c2cc3ncnc(Nc4ccc(NC(=O)Nc5cc(C(C)(C)C)on5)cc4)c3s2)cn1	1.94	31.9
Cc1cn(-c2cc(NC(=O)c3cncc(C#Cc4cnc5ccc(OCCCS(C)(=O)=O)nn45)c3)cc(C(F)(F)F)c2)cn1	1.96	> 100
CC1OC(O[C@@H]2C(O)C(CO)OC(O[C@H]3COC(O[C@H]4CC[C@]5(C)[C@H]6CC[C@]78OC[C@@]9(CC[C@](C)(C=O)C[C@H]97)[C@H](O)C[C@@]8(C)[C@]6(C)CC[C@H]5C4(C)C)[C@@H](OC4OC(CO)[C@@H](O)[C@@H](O)[C@@H]4O)[C@@H]3O)[C@H]2OC2OC[C@@H](O)[C@@H](O)[C@@H]2O)[C@@H](O)[C@@H](O)[C@H]1O (stereo not given in full)	1.9	3.6
COc1cc2c3c(n(CCCNC4CCCC4)c(=O)c2cc1OC)-c1cc2c(cc1C3=O)OCO2	9.45	24.4
NC(N)=Nc1ccc(Oc2cccc(Nc3ccc(Cl)cc3)c2)cn1	1.66	3.03
